# Reference: article PMC4336329 (PLoS ONE, 2015)
# Hit rate of the full screen: of about 310,000 compounds, about 2,200 (0.71%) showed an effect of 50% or more. Effects have a minus sign here. The list shows a part of the results.
# Molecular target: human ether-à-go-go-related gene (hERG) potassium channel (human, UniProt Q12809)
# Assay: primary screen, population patch clamp on CHO cells stably expressing hERG
# Sequence of human ether-à-go-go-related gene (hERG) potassium channel (Q12809 whole entry, looked up): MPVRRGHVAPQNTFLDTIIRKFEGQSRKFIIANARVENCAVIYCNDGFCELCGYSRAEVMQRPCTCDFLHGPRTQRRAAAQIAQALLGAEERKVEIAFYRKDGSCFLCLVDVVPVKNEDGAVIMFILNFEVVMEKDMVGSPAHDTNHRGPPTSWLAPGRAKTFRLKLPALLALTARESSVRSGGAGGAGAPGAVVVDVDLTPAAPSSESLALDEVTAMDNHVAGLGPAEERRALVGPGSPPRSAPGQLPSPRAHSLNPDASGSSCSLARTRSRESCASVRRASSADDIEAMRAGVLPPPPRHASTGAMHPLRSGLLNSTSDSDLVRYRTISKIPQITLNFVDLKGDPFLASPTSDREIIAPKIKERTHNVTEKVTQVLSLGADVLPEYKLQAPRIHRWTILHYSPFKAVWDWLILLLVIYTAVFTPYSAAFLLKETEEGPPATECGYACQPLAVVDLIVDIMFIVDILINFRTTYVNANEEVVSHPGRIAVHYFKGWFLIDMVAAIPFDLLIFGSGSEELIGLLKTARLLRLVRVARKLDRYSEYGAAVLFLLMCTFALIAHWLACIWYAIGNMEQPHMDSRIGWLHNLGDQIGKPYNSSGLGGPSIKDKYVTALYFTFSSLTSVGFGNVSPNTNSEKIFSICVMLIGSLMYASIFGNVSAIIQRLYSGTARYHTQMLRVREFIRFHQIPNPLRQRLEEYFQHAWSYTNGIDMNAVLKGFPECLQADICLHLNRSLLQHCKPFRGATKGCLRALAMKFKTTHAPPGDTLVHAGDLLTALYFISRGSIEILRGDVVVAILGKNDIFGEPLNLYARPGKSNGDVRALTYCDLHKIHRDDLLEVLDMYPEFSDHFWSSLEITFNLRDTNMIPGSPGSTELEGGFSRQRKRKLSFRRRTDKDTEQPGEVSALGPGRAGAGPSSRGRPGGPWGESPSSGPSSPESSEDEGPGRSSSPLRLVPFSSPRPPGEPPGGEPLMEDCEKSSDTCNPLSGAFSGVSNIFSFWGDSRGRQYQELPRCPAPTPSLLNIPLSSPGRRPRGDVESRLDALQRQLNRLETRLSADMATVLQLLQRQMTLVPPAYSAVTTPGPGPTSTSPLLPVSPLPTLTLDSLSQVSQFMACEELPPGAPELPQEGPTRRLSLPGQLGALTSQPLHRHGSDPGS
row,SMILES,"hERG current change (%, negative = inhibition) at 1uM [%]"
1,CCN1C(=O)C(CC(=O)Nc2ccccc2)S/C1=N\c1ccccn1 (stereo not shown),11.5
2,CC1CCN(CCCn2c(=S)[nH]c3ccc(N4CCOCC4)cc3c2=O)CC1,12.2
3,CCCc1cc(=O)oc2cc(C)cc(OC(C)C(=O)NCc3ccncc3)c12 (stereo not shown),-9.94
4,CCOC(=O)C1CCCN(C(=O)c2cc(S(=O)(=O)N(C)C)ccc2N2CCCC2)C1 (stereo not shown),-1.51
5,CCc1ccc(OS(=O)(=O)c2cn(C)c(=O)n(C)c2=O)cc1,14.8
6,O=C1CCC(=O)N1c1ccccc1,12.3
7,CCC(N=c1cc(-c2ccc(OC)cc2)oc2ccc(C)cc12)C(=O)O (stereo not shown),-23.6
8,COc1ccccc1C(=O)COC(=O)COc1cccc2c1OC(C)(C)C2,11.8
9,CC(C)C12CN3CC(C(C)C)(CN(C1)C3(C)C)C2=O,5.38
10,CCOc1cc2c(C#N)c(N3CCNCC3)nc(N)c2c(N)n1,11
11,COC(=O)c1ccc(C)c(NC(=O)CSc2nc3[nH]c(=O)cc(O)c3s2)c1,18.1
12,CC(=O)n1cc([C@@H]2C=C(C(=O)NCc3ccccc3)O[C@H](OCCCCO)C2)c2ccccc21,-16.7
13,COc1cc(C(=O)NC2CCCCC2)ccc1OCc1ccc(Cl)cc1Cl,9.14
14,COc1ccccc1N1CCN(C(=O)Cn2nc3n(C)c4ccccc4n3c(=O)c2=O)CC1,2.55
15,CC(=O)C1=C(O)C(=O)N(c2ccc(Br)cn2)C1c1ccccc1[N+](=O)[O-] (stereo not shown),16.1
16,CC(Cc1cccs1)NC(=S)Nc1ccccc1 (stereo not shown),11.7
17,Cc1ccc(NC(=O)CCNC(=O)c2ccc(Cl)cc2)cc1F,11.1
18,Cc1cc(C)cc(Nc2ccc(C(=O)O)cc2[N+](=O)[O-])c1,12.2
19,COc1ccccc1-n1c(SCC(=O)NC(C)(C)C)nc(O)c(Cc2ccccc2)c1=O,3.31
20,Cc1ccc(NC(=O)Cn2cc(S(=O)(=O)c3ccc(C)cc3)c(=O)c3cc(F)ccc32)cc1,-1.49
21,COc1cccc(-n2ccnc2SCC(=O)Nc2nccs2)c1,-3.42
22,O=C(NCCc1ccc([N+](=O)[O-])cc1)c1ccccc1,7.23

row,SMILES,"hERG current change (%, negative = inhibition) at 1uM [%]"
1,Nc1ccc(N2CCOCC2)cc1C(F)(F)F,14
2,O=C(Nc1ccccc1)N1CCn2c(nc3ccccc32)C1,-6.18
3,CCn1nc(C)c(/C=N/NC(=O)Cc2ccc(Cl)cc2)c1C,7.81
4,COC(c1ccccc1)c1nc2ccccc2[nH]c1=O (stereo not shown),15.7
5,O=C(Nc1cccc(Oc2ccc3c(c2)C(=O)NC3=O)c1)c1cccs1,-2.79
6,CN1C(=O)C(=Cc2ccccc2OCc2ccc(Cl)cc2)C(=O)N(C)C1=O,0.0606
7,COc1ccc2oc(C(=O)OCC(=O)NCCc3ccccc3)c(C)c2c1,2.83
8,Cc1ccc(OCc2cc(C(=O)N(C)CCc3ccccn3)no2)cn1,11.5
9,O=C(O)C1C2CCC(C2)C1C(=O)Nc1ccc(Cl)c(Cl)c1 (stereo not shown),12.4
10,O=C(N/N=C/c1cccc2nccnc12)c1ccncc1,6.61
11,CC(C)(C)NC(=O)C(c1cccs1)N(C(=O)c1csnn1)c1cccc(F)c1 (stereo not shown),6.23
12,C[C@H](NC(=O)N1CCC(Cc2ccccc2)CC1)C(=O)O,13.5
13,Cc1ccc(S(=O)(=O)Nc2ccc3cn[nH]c3c2)cc1,10.6
14,Cc1nc2ccccc2c(=O)n1-c1cccc(O)c1,16.8
15,CC(C)C(c1nnnn1Cc1cccs1)N1CCN(C2CCCC2)CC1 (stereo not shown),-7.38
16,CCCN1CCC(=O)N(CCSc2ccc(OC)cc2)CC1,-11.5
17,CCOc1ccc(CCNC(=O)C2CSC3(C)CCC(=O)N23)cc1OCC (stereo not shown),12.2
18,COc1ccc(C2(O)C(=O)Nc3ccc(C)cc32)cc1OC (stereo not shown),11.8
19,Cn1c(=O)c(C(=O)CSc2nnc(Nc3ccccc3)s2)c(N)n(Cc2ccccc2)c1=O,13.2
20,CCOc1ccccc1N1CCN(Cc2c(C)n(C)n(-c3ccccc3)c2=O)CC1,-2.29
21,O=S(=O)(c1cccc(Br)c1)N1CCN(c2ccnc3cc(Cl)ccc23)CC1,10.2
22,CS(=O)(=O)N(CC(=O)N1CCCCC1)c1ccc(Cl)c(C(F)(F)F)c1,4.55

row,SMILES,"hERG current change (%, negative = inhibition) at 1uM [%]"
1,C=CCc1ccc(OCCCCNC(C)CC)c(OC)c1.O=C(O)C(=O)O (stereo not shown),4.58
2,O=C(COC(=O)c1cc[n+]([O-])cc1)Nc1ccc(Cl)cc1[N+](=O)[O-],28.8
3,O=S(=O)(c1ccc(Br)cc1)N1CCn2c(nc3ccccc32)C1,-0.37
4,O=C(Nc1ccc2nc(SCc3ccc(Cl)cc3)sc2c1)c1ccccc1C(=O)N1CCOCC1,16.8
5,Cc1ccc(S(=O)(=O)N2CCCCC2)cc1NC(=O)CSc1ccc2c(c1)OCCO2,12.6
6,Cc1ccc(NC(=O)C2CC(=O)Nc3ncnn32)cc1Cl (stereo not shown),1.94
7,CCc1ccc(CCC(=O)Nc2ccc(C(=O)O)cc2)o1,12.4
8,Cc1cc(NC(=O)Nc2cccc(Cl)c2)n(-c2ccccc2)n1,10.8
9,CC(C)C(C(=O)NC1CCCC1)N(Cc1ccco1)C(=O)CNS(=O)(=O)c1ccccc1 (stereo not shown),16.6
10,CSc1nc(C)c2c(n1)N(c1ccc(C(F)(F)F)cc1)CC2,-1.79
11,Cc1ccc(C(=O)Nc2ccc(F)cc2F)o1,7.28
12,CCCC(=O)N1CCC(CCC(=O)NC2CC2)CC1,14.8
13,O=[N+]([O-])c1ccc(N2CCSCC2)cc1O,14.1
14,CC(=O)N1CCC(N(CCN2CCOCC2)C(=S)Nc2c(C)cccc2C)CC1,15.4
15,Cc1ccc(N=Nc2c(=O)[nH]n3c(=O)cc(C)[nH]c23)cc1,16.6
16,Cc1cccc(Oc2ccc(C(=O)NC3CCSC3=O)cn2)c1C (stereo not shown),12
17,COc1cccc(CNC(=O)Cc2csc(NC(=O)Nc3ccccc3OC)n2)c1,13.3
18,CCOC(=O)c1c(NC(=S)N2CCOCC2)sc2c1CCN(C(=O)OCC)C2,5.16
19,COc1ccc(CNC(=O)c2sc3nc4c(c(C(F)(F)F)c3c2N)CCC4)cc1OC,6.92
20,CC1(C)Cc2cccc(OCC(=O)OCc3nnc(-c4ccccc4)o3)c2O1,7.26
21,COc1cccc(N2CCN(S(=O)(=O)c3ccc(CN4C(=O)c5cccnc5C4=O)cc3)CC2)c1,17.6
22,CCCc1ccc(OCC(=O)NNC(=O)c2cccnc2)cc1,-3.42

row,SMILES,"hERG current change (%, negative = inhibition) at 1uM [%]"
1,Cl.Fc1ccc(COc2ccc(Br)cc2CNCC2CCCO2)cc1 (stereo not shown),-39.7
2,O=S(=O)(c1ccccc1)c1cnn(-c2ccccc2)c1-c1ccc(Cl)cc1,7.48
3,CCC(C)NS(=O)(=O)c1ccc(OCC(=O)Nc2ccc3c(c2)OCO3)cc1 (stereo not shown),16.7
4,O=C(NC(NC(=S)N1CCOCC1)C(Cl)(Cl)Cl)c1ccc(Cl)cc1 (stereo not shown),-8.3
5,S=c1[nH]nc(Cc2ccccc2)n1-c1cccc2ccccc12,15.1
6,CCSc1nnc(NC(=O)CCNS(=O)(=O)c2cc(Br)cnc2N)s1,6.73
7,C/C(=N\NS(=O)(=O)c1ccc(Cl)cc1)c1ccc(O)cc1,-9.61
8,CCOC(=O)CN(C(=O)CSc1nnc(CNc2ccc(C)cc2C)o1)c1ccccc1,2.5
9,Cc1cc(C)nc(NS(=O)(=O)c2ccc(NC(=S)NC(=O)c3cccnc3)cc2)n1,16.6
10,CCOc1cc(CNCCc2ccc(S(N)(=O)=O)cc2)cc(Cl)c1OCc1ccccc1.Cl,-8.24
11,O=[N+]([O-])c1ccc(C(=S)N2CCN(Cc3ccccc3)CC2)cc1,-32.6
12,CCCn1c(N)c(C(c2ccc(OC)cc2)N2CCN(c3ccccc3)CC2)c(=O)[nH]c1=O (stereo not shown),7.33
13,CCN(CC)CCNC(=S)Nc1ccc2nc3n(c(=O)c2c1)CCCCC3,-0.738
14,CC1CCN(c2c(NCc3ccc(C(=O)N4c5ccccc5CC4C)cc3)c(=O)c2=O)CC1 (stereo not shown),-3.27
15,CCc1ccc(NC(=O)c2cc(CC(C)C)on2)cc1,9.61
16,CN(C)S(=O)(=O)c1ccc(N2CCCC2)c(C(=O)NCC2CCCO2)c1 (stereo not shown),16.5
17,CCOC(=O)c1sc(NC(=O)CN2C(=O)C3CC=CCC3C2=O)nc1C (stereo not shown),11.7
18,Cc1cccn2c(=O)c(/C=C(\C#N)C(=O)NCc3ccco3)c(N3CCC(C(N)=O)CC3)nc12,4.98
19,Cc1c(Cl)cccc1NC(=O)NCc1cccnc1,16.7
20,COc1cccc(NC(=O)c2cc(-c3ccco3)nc3ccccc23)c1,12.2
21,COC(=O)c1ccccc1NC(=S)N1CCC(N2CCCCC2)CC1,8.49
22,Cc1ccc(S(=O)(=O)N2CCN(CC(=O)N/N=C/c3cc([N+](=O)[O-])ccc3Cl)CC2)cc1,2.85
